Measurements taken from PubChem BioAssay AID2675 (National Center for Advancing Translational Sciences (NCATS), 2010).
In all, about 280,000 compounds went through this assay and about 100 (0.036%) were called active. The inconclusive results got no clear call from the source; some entries with a clear call stand among them for comparison. The call rests on the fitted dose curve; in most records, active means well fitted inhibition curve with a large enough effect in the signal ratio, with a control signal flat (not every such curve was filed as active); inconclusive means small, poorly fitted or top-dose-only effect, or effect the other way, or a change in a side signal; inactive means no such curve, though single readings can be large or run the other way; the % refers to the signal ratio. Where the call is inconclusive, the potency comes from a doubtful curve fit. A note “side channel” means that the fit belongs to a control or component signal, not to the main read-out.

target: Muscleblind-like protein 1 (Homo sapiens) (UniProt Q9NR56); assay: qHTS Assay for Inhibitors of MBNL1-poly(CUG) RNA binding; details: TR-FRET MBNL1-His/biotin-(CUG)12 binding, 665/545 ratio; activity change, negative = inhibition: at 57.5 µM (top of the series)
How it was run: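 Compounds (final 92 nM to 58 uM) are added to His-tagged MBNL1 and biotin-(CUG)12, then terbium anti-His antibody and streptavidin-XL665 (5 nM final). After 60 min at room temperature, the 665/545 nm ratio is read.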
On the % scale 0 is the no-effect control and ±100 the full control effect; potency means the concentration at half of the fitted maximal effect; tags describe the fitted curve by direction and shape or compound fluorescence and quenching.

Chain of UniProt Q9NR56 (Q9NR56 whole entry, looked up): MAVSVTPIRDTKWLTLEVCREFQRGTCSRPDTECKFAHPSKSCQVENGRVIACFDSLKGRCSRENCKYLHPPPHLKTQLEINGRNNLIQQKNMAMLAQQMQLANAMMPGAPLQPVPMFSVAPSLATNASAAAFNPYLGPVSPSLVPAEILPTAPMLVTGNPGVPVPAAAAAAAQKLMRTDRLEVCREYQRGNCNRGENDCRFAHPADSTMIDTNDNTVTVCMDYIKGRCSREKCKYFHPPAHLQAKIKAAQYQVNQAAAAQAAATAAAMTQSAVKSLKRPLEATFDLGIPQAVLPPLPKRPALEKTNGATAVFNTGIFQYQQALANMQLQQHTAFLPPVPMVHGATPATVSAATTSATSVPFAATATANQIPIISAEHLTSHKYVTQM

Structure (SMILES)	Potency	activity change, negative = inhibition
CN(C)CCNC(=O)c1cc2c(s1)-c1ccccc1OC2	inconclusive: 12.6 µM [quencher, side channel, partial curve]	
COc1ccc(-n2nc(C(=O)NCC(=O)N3CCCC3)c3ccccc3c2=O)cc1		inconclusive: 28.6% [phenotype inactive]
O=C(Cc1ccccc1)NCC(=O)OCC(=O)c1cccc([N+](=O)[O-])c1	inconclusive: 14.1 µM [activator, single point]	
BrC(=C\c1ccccc1)/C=N/Nc1ccc2nncn2n1	inconclusive: 14.1 µM [quencher, side channel, partial curve]	
CCOC(=O)/C(C#N)=C/c1cc2ccc(C)cc2nc1Cl	inconclusive: 3.98 µM [quencher, side channel, full curve]	
O=[N+]([O-])c1cc(S(=O)(=O)C(F)(F)F)ccc1NCC1CCCO1 (centres undefined)	inconclusive: 12.6 µM [quencher, side channel, partial curve]	
Cc1ccc(NC(=O)c2ccco2)c([N+](=O)[O-])c1	inconclusive: 10 µM [quencher, side channel, partial curve]	
O=C(NCc1ccccc1Cl)c1cccc(NC(=O)c2ccccc2)c1	inconclusive: 35.5 µM [quencher, side channel, partial curve]	
COC(=O)c1ccc(CSc2nnc(-c3c[nH]c4ccccc34)n2C)o1	inconclusive: 126 µM [inhibitor, partial curve]	
CN(C)/N=C/c1cc(Cl)cc([N+](=O)[O-])c1O	inconclusive: 31.6 µM [quencher, side channel, partial curve, poor fit]	
CCOC(=O)c1cc2c(=O)n3ccccc3nc2n(Cc2ccco2)c1=NC(=O)c1ccc(OC)cc1OC	inconclusive: 14.1 µM [quencher, partial curve]	
CC(C)CNS(=O)(=O)c1ccc(CCC(=O)NCc2ccco2)cc1	inconclusive: 100 µM [inhibitor, single point]	
O=C(NCc1ccc(F)cc1)c1ccc(N2CCc3ccccc32)c([N+](=O)[O-])c1		inconclusive: 28.7% [phenotype inactive]
O=C(Cc1ccc(Cl)cc1)NNC(=O)c1cnccn1	inactive	
O=C(C1CCCN(S(=O)(=O)c2cccs2)C1)N1CCC(N2CCCCC2)CC1 (centres undefined)	inconclusive: 1.78 µM [quencher, side channel, partial curve, poor fit]	
COc1cc(/C=C2\N=C3CCCCCN3C2=O)ccc1O	inconclusive: 15.8 µM [quencher, side channel, partial curve]	
Cc1cc(=O)[nH]c(N/N=C/c2ccc3c(c2)OCCO3)n1	inconclusive: 28.2 µM [quencher, side channel, single point]	
Cc1cnc2c(c1)C(=O)c1ccccc1-2	inconclusive: 7.94 µM [quencher, side channel, partial curve]	
CCOC(=O)C1=C(C)C(c2ccccc2)NC(=S)N1 (centres undefined)	inactive	
CC(=O)Nc1cccc(C2=CC(c3ccco3)n3ncnc3N2)c1 (centres undefined)	inconclusive: 15.8 µM [quencher, side channel, partial curve]	

Structure (SMILES)	Potency	activity change, negative = inhibition
CC(C)OCC1CC(CC(=O)NC(=S)Nc2cccc([N+](=O)[O-])c2)C(=O)O1 (centres undefined)	inconclusive: 14.1 µM [quencher, side channel, partial curve]	
COc1ccc(CNc2nc3ccccc3n2Cc2ccc(Cl)cc2)cc1OC	inconclusive: 44.7 µM [quencher, side channel, single point]	
CCOc1ccc2[nH]c3nc(SCC(=O)NCC4CCCO4)nnc3c2c1 (centres undefined)	inconclusive: 12.6 µM [quencher, side channel, partial curve]	
O=C(NC(=O)N1CCOCC1)c1ccccc1	inconclusive: 39.8 µM [fluorescent, side channel, single point]	
C=CCN(CC=C)C(=S)NC(=O)/C=C/c1ccc(C)cc1	inactive	
Cc1nn(CCC(=O)NNC(=S)Nc2ccc(Cl)cc2)c(C)c1[N+](=O)[O-]	inconclusive: 7.08 µM [quencher, side channel, single point]	
CCCCNC(=O)Cc1ccc(C)cc1	inconclusive: 2.82 µM [fluorescent, side channel, single point]	
O=C(NN1C(=O)/C(=C/c2ccc(O)c([N+](=O)[O-])c2)SC1=S)c1ccccc1Cl	inconclusive: 22.4 µM [quencher, side channel, partial curve]	
Oc1c(Cl)cc(Cl)cc1Sc1cc(Cl)cc(Cl)c1O	inactive	
COc1ccc(/C(N)=N/OC(=O)CC2CCCCC2)cc1OC	inactive	
Nc1nonc1-n1nnc(C(=O)N/N=C/c2ccco2)c1-c1ccccc1	inconclusive: 17.8 µM [quencher, side channel, partial curve]	
O=C1[C@H]2[C@@H](C(=O)N1c1cccc3ccccc13)C1(C(=O)c3ccccc3C1=O)N1CCC[C@@H]21	inactive	
Brc1cccc(CNCCCN2CCOCC2)c1	inactive	
CCOC(=O)CN1N=C(c2ccc(Cl)cc2)CCC1=O	inactive	
COc1cccc(C2c3c(oc4ccc(F)cc4c3=O)C(=O)N2CCN2CCOCC2)c1OC (centres undefined)	inconclusive: 2.24 µM [quencher, side channel, full curve]	
CCCC[n+]1ccn(C2=C([O-])c3ccccc3C(=O)/C2=N\S(=O)(=O)c2ccc(Br)cc2)c1	inconclusive: 2 µM [quencher, side channel, partial curve]	
CCc1ccc(CCC(=O)Nc2ncc(Cc3ccccc3Cl)s2)o1	inconclusive: 0.355 µM [fluorescent, side channel, full curve]	
O=C(Oc1ccc(Br)cc1C(=S)N1CCOCC1)c1ccc([N+](=O)[O-])cc1[N+](=O)[O-]	inconclusive: 11.2 µM [quencher, side channel, partial curve]	
C=CCc1ccccc1OCC(O)CNC(C)C (centres undefined)	inactive	
